In all, about 310,000 compounds went through this assay and about 2,200 (0.71%) showed an effect of 50% or more. The effect is printed as a negative number. This is one part of the list.
These molecules were tested against human ether-à-go-go-related gene (hERG) potassium channel (human, UniProt Q12809) (assay: primary screen, population patch clamp on CHO cells stably expressing hERG).
Chain of human ether-à-go-go-related gene (hERG) potassium channel (Q12809 whole entry, looked up): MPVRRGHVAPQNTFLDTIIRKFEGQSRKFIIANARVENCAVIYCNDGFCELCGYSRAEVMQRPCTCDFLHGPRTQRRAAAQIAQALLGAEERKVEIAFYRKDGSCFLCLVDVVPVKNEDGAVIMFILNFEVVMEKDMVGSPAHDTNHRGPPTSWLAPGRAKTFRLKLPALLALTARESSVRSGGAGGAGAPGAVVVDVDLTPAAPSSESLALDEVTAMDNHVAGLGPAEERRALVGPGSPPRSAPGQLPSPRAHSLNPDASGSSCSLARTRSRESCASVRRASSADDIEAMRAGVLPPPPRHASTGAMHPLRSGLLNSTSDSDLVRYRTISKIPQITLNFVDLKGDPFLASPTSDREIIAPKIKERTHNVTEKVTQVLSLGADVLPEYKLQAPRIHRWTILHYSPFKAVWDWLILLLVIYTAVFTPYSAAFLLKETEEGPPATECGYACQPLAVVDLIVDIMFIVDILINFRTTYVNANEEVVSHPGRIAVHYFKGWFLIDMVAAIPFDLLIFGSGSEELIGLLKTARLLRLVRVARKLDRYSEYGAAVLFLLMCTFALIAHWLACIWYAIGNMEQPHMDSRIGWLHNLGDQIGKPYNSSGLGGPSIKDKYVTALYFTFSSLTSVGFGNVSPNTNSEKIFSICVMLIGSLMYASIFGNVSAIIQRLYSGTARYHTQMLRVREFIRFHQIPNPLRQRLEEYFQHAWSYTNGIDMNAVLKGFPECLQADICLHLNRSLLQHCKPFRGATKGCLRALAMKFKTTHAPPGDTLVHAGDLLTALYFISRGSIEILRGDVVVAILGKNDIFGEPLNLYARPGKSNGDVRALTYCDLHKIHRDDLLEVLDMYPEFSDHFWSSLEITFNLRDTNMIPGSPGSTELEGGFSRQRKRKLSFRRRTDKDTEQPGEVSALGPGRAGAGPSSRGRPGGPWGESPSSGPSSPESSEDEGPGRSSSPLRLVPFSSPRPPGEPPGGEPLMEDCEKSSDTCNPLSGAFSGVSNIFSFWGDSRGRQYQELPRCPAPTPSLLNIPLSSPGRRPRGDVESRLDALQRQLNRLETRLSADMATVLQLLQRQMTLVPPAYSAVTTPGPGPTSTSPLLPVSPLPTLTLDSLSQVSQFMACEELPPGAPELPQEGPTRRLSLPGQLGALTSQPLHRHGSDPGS

SMILES | hERG current change (%, negative = inhibition) at 1uM
N#Cc1ccc(CSc2ncnc3c2cnn3Cc2ccccc2)cc1 | 11.5%
O=C1c2cccc3cccc(c23)C(=O)N1CC1CCCO1 (centres unmarked) | 15.2%
COc1cc(OC)cc(-c2c(-c3ccc(F)cc3)c3cc(-c4cnc(OC)nc4)ccc3n2C)c1 | 14.7%
COc1ccc(/C=C2\SC(=S)N(CCCCCC(=O)Nc3cc(C)on3)C2=O)cc1OC | 28.2%
O=C(NC(=S)Nc1ccc(-c2nc3ncccc3o2)cc1)c1ccccc1F | 10.5%
CN(C)CCN(C(=O)CN1C(=O)c2ccccc2C1=O)c1nc2cc3c(cc2s1)OCCO3.Cl | -10.2%
COC(=O)c1sc(NC(=O)COc2ccccc2C)nc1C | -4.42%
CC1=C(C(=O)Nc2ccccc2)C(c2ccc(Cl)cc2)n2c(s/c(=C/c3cccc(OCC(=O)O)c3)c2=O)=N1 (centres unmarked) | 10.5%
Cn1c(N)c(C(=O)COC(=O)COc2ccccc2C#N)c(=O)n(C)c1=O | 4.43%
Cn1cc(CN(CCO)Cc2cccs2)c(-c2ccccc2F)n1 | 3.19%
Cc1ccccc1-c1nc(CN2CCC(C(=O)N3CCN(c4ccccn4)CC3)CC2)c(C)o1 | -14.6%
CS(=O)(=O)N1CCN(c2ccccc2NC(=O)c2ccc([N+](=O)[O-])o2)CC1 | 14.6%
Cc1ccc(-n2c(SCC(=O)NNC(=S)Nc3ccccc3)nc3ccccc3c2=O)cc1 | 10.8%
COc1ccc(OC)c(-c2oc3ccccc3c(=O)c2O)c1 | 3.89%
COc1ccccc1N1CCN(C(c2cccs2)C(C)NC(=O)c2cccs2)CC1 (centres unmarked) | 6.99%
COC(=O)c1cc2cc(OC)ccc2n1C | 6.28%
CC(C)CN1C(=O)c2ccc(C(=O)Nc3c[nH]c(=O)[nH]c3=O)cc2C1=O | 14.9%
CCOC(=O)C1=C(C)N(CCO)C(=O)NC1c1cccc(O)c1 (centres unmarked) | 15.3%
Cc1cccc(C)c1OCC(=O)Nc1cccc(C(=O)O)c1 | 11.6%
CCOc1ccc(NC(=O)Nc2ccc3c(c2)N(C)C(=O)CS3)cc1 | -2%
CCOc1ccc(NCc2nnc(SCc3ccccc3Cl)n2-c2ccccc2)cc1 | 6.38%
CN(CC(=O)NCc1ccncc1)S(=O)(=O)c1ccc(F)cc1 | 5.71%
Cc1occc1-c1nnc(SCC(=O)NCc2ccco2)n1CC(C)C | 11%
